Laboratory results published in the supplement of paper PMC11417369.
± gives the standard deviation of the averaged measurements. The list shows a part of the results.

Test system: PfAP2-G AP2 domain (GST-tagged)
Test: gcPBM binding intensity (ln(normalized median fluorescence intensity)); higher = stronger DNA binding
Procedure, shortened: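 GST-tagged P. falciparum DNA-binding domains produced in E. coli were incubated for 1 h on an Agilent 4 × 180k array of primer-extended double-stranded 36-bp intergenic genomic probes with negative controls. Binding intensity is the highest Masliner-normalised natural-log median intensity across replicate spots of either probe orientation, with bound protein detected by Alexa488 anti-GST antibody at 488 nm.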

Row | Sequence | gcPBM binding intensity (ln)
1 | CTTACCAAAAGACACACACACACAAGATATATAAAT [CACACA_site6964] | 10.2 ± 0.26
2 | AAATTAAAATAAAAATGTACATATAAAGACACAACT [XGTACX_site3132] | 11.1 ± 0.6
3 | ATAAAAAAAAATAGCACACATAAATATATTATATAT [CACACA_site767] | 10 ± 0.014
4 | ACAATATAGATTAAAAGTACAAATAGTAAATTATAT [XGTACX_site3165] | 11.2 ± 0.71
5 | TCTTAAATATATAAATTGAAAAATATAAAAGTAATA [CACACA_negctrl_site1558] | 9.88 ± 0.29
6 | AAAACAATATACTGTAGTACTGATGATATATATATA [XGTACX_site7798] | 11 ± 0.52
7 | AATCATCTCATAAAAATTAATTAGTGTATGTCTTTT [TGCATGCA_negctrl_site416] | 9.68 ± 0.18
8 | CTACTTATAAATAGAACACACATAAGTGTATTTGTA [CACACA_site3759] | 10.1 ± 0.11
9 | TAAAATTTAAATTATACACACTTAAGTAACATCATC [CACACA_site4450] | 10.4 ± 0.22
10 | TAATTATGTATGAACTGTACAGGTTATTTTATTTTA [XGTACX_site5204] | 11.1 ± 0.76
11 | AAAAAAAATTTATTTGCATGCAAAAAAAAAAAAAAA [TGCATGCA_site67] | 9.66 ± 0.39
12 | AAAAAATACCTCTATAGTACATATATATAATATTTA [XGTACX_site7222] | 10.7 ± 0.51
13 | AATATAAATAATGTTAAACACACATACCGATATATA [CACACA_site8869] | 9.81 ± 0.2
14 | ATTTATAGAGCTATATGTACATATATATATATTATT [XGTACX_site3704] | 11 ± 0.49
15 | AAAAAACACGGACACACACACATATACATACATACA [CACACA_site5470] | 11.5 ± 0.88
16 | TTCCACCAATATATATGTACTTATAATATATATATA [XGTACX_site8700] | 11.2 ± 0.84
17 | AATTACATATAATACTGTACGCTAATAAGAAAAAAA [XGTACX_site7413] | 11.5 ± 0.75
18 | AAAAGGTGGAAAAATGCATGCAGGCTATTCTATATA [TGCATGCA_site1034] | 9.63 ± 0.15
19 | ATATAAATAAAGAAATATATATATATATATATATAT [GTGCAC_negctrl_site668] | 9.73 ± 0.38
20 | AACGCTTATTAGTTGTTGTATATGTGTTCACATATT [CACACA_negctrl_site379] | 10.1 ± 0.11
21 | ATAAAAGATTTATACATACACACATATTATATTCAC [CACACA_site3714] | 9.98 ± 0.028
22 | TTTTTTTTTTTTTTTTAACACACATATATATATTTT [CACACA_site8585] | 9.63 ± 0.43

Row | Sequence | gcPBM binding intensity (ln)
23 | ATATATATGTATATAACATGCAACATTTAATAATAA [TGCATGCA_site1018] | 9.925 ± 0.021
24 | TTTTTTTTTTGTTGTTGTACTCTTATATTTTTATAT [XGTACX_site6178] | 11.4 ± 0.79
25 | ATTCTAGTAATATATGTATATTTATATATGTATGTG [XGTACX_negctrl_site419] | 10 ± 0.14
26 | ACACATGTATTTGGTGCATGTTGTTAAAAAAATATT [TGCATGCA_site795] | 10.1 ± 0.18
27 | TCATAGCTAGGATAACGTACAGAAAAGTGAAAAATT [XGTACX_site3322] | 11.2 ± 0.57
28 | TTTTTTTTTTTATGCTCACACATTAATTTTTATACA [CACACA_site4527] | 9.96 ± 0.057
29 | TATGTATGTATGTATGTATGCATGTCTAACACCTAA [TGCATGCA_site360] | 9.98 ± 0.085
30 | AAAAAGAAAAAAGAAAGTACAAATATACACATTTTT [XGTACX_site3343] | 10.9 ± 0.54
31 | TTTTTATTATAAGGTCGTACAATTGTAATTATTGTA [XGTACX_site1413] | 11.4 ± 0.83
32 | GATCTATTGAGTGATACATGCAGGAAAATTAAAAAC [TGCATGCA_site729] | 10.11 ± 0.042
33 | ATTGTCAAAACACGCACACACATATACATAATAACA [CACACA_site1742] | 10.4 ± 0.33
34 | ATTATATACATATATATTGTATATACTATACATATG [XGTACX_negctrl_site545] | 9.875 ± 0.021
35 | TAATAAAAAAAGTGCACACACATAATATATATATAT [CACACA_site3340] | 10.7 ± 0.54
36 | TATAAATCAATATGTACACACATATACATGTTGAAT [CACACA_site7460] | 11.3 ± 0.9
37 | CATATAATATATCAATGTACATATATATTTTATAAA [XGTACX_site5901] | 11.1 ± 0.73
38 | TTAGCAACTATTACTACACACATTTTTATATAATTT [CACACA_site1372] | 10.03 ± 0.014
39 | ATATATACCTATAACACACACATATTTATATTTATA [CACACA_site7257] | 9.985 ± 0.049
40 | ATATATATATAAAGGAGTACATACATTAAAAAAAAA [XGTACX_site1095] | 11.7 ± 1
41 | TCTTATTTAAAAATAGCACACATTATATATATATAT [CACACA_site8916] | 10.2 ± 0.52
42 | AAAAAACATACATACACACACATAAATATATATATT [CACACA_site2699] | 10.1 ± 0.16
43 | ACACATACACATTAGGTGCACATAATTCAATATTAC [GTGCAC_site9862] | 10.6 ± 0.46
44 | TATGAAACGATATATGTGCACATGAGGGAATATAGA [GTGCAC_site9611] | 10.5 ± 0.24
